# This is one part of the list.
# T1: UNK ZnF1-3 (human, UniProt Q9C0B0 31-174)
# T1 sequence: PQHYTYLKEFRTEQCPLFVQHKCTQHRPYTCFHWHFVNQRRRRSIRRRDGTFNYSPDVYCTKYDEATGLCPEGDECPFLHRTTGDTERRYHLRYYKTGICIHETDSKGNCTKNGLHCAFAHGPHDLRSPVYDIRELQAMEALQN
# B1: chr9:44212477:44212478:-_ENSMUSG00000032112_ENSMUST00000034623|mus_mus|motif|central (ssRNA)
# RNA: GGGAGUUCUACAGUCCGACGAUCUGGAUUCUUGAGGGCAAAGUCUGAGUAAAUUUCAUAAAUUUUUCGGAGAAGAGAAUCGGUUCCAGCUUGCCUAGGGUCUGCCAGGACCACAAACUUGAUCCCUGUCAGUGUUUGGAAGCACAACAGAGGAUUGAGCAUCA
# B2: chr2:60072322:60072323:+_ENSMUSG00000026977_ENSMUST00000102748|mus_hu|FALSE|FALSE (ssRNA)
# RNA: GGGAGUUCUACAGUCCGACGAUCUGAUCUUGUAUUCAAGGAAUCCUGACUAGAUCUUCGUGAAAAAAAAGUAGAUGACAUGCUAGAAGCUAUGCGUGACAGCAAUCUCCUCGUUGUCCGCCUACCUUCAUUGUCAGAAGAUUCCAACAGAGGAUUGAGCAUCA
# B3: 84311146_84315497_1198_CDS_ENSG00000065609_ENST00000520302|human|control|control (ssRNA)
# RNA: GGGAGUUCUACAGUCCGACGAUCAGCCAAAGAAUCCUCUCCCAAAAGGUCUCCCCAUGCAGUGGCUCCUCCAGCAGGUGGUGGUGGUGCUGGUGCUGCGGCUGCUGCUGCCCCUCCAGAGGAAAAGUCUGGCUGGAGGUCCAGCAACAGAGGAUUGAGCAUCA
# B4: 14366535_14366655_1968_3pUTR_ENSMUSG00000013076_ENSMUST00000013220|mouse|control|control (ssRNA)
# RNA: GGGAGUUCUACAGUCCGACGAUCUCACUCUAGCCUGCGCAUUGCUCAAAGCCUGGUCCAGGAUCUCGAUGUGCCUCCGAUGGUCCUCACUUGCCGUACGCACUGCUGCCAACUCCAUUUCCAACUUUUCCUUUUCCUUCAAGACAACAGAGGAUUGAGCAUCA
# B5: 68591999_68592467_227_CDS_ENSG00000184939_ENST00000398253|human|control|control (ssRNA)
# RNA: GGGAGUUCUACAGUCCGACGAUCAUAGAAAGGUCGUUGGAUUUCUCCCUCUGAUAUCCAUGGCUCUUCUCCUUGCUCCAAUUUGAAGAUCACCUCUGGCUUGGAAACUUGAUAUCCAAGAGAAACCAGGUGGCUAUAGUUCUCCAACAGAGGAUUGAGCAUCA
# B6: 98117991_98118111_2156_3pUTR_ENSG00000125249_ENST00000245304|human|control|control (ssRNA)
# RNA: GGGAGUUCUACAGUCCGACGAUCAUCUUUUCAGCAUUUAUGUAUAACUAAGUUAGCUGAAGACCCCUCUAUACUUGAUUGUAAAACUUAUGAAUAGGUUUUUCCUGUGCCAUUAGUCAUGCAAAUGAUAAAUACUUCACGACUCAACAGAGGAUUGAGCAUCA
# B7: chr12:45383586:45383587:+_ENSMUSG00000036257_ENSMUST00000043082|perfect_dup|motif|central (ssRNA)
# RNA: GGGAGUUCUACAGUCCGACGAUCGUAAAUAUAUAUAUCUACAGUCAGAUUAAUAGACAUAACUUAAAAAUCAUUUAUUUUCGGUGACAUUCUCUCACUUCUUGAACGCUUCAUUUAAGAAAUGCCAUAAUUCAUGGUCUUACUCAACAGAGGAUUGAGCAUCA
# B8: chr11:54683702:54683703:+_ENSMUSG00000020267_ENSMUST00000020504|mus_mus|FALSE|FALSE (ssRNA)
# RNA: GGGAGUUCUACAGUCCGACGAUCACAUUUCUUGCCAACAAUCAUUAAAUGUCCUAGAAGACUUUCAUCAUCAUCAUCUGCUACAGAAAUCUGGGAUAUAUGCUUCUUGGGUAUCACCAGAAAGUGUGUUGGUGCUUGAGGGGACAACAGAGGAUUGAGCAUCA
# B9: chr12:51141157:51141158:+_ENSG00000066084_ENST00000301180|hu_hu|motif|central (ssRNA)
# RNA: GGGAGUUCUACAGUCCGACGAUCGGACAUGCAAAAGAUCAAUAAAGCAGAAAGCAAAAAAUAAAUUAGAGGCCUGAGGAACGGCAAAACUAGAUAAUCAGCCUCUAAGUAAAUGGGAGUUGGCCACACUUUGAGAUUAACAGACAACAGAGGAUUGAGCAUCA
# B10: chr8:117878989:117878990:-_ENSG00000164754_ENST00000297338|hu_hu|motif|central (ssRNA)
# RNA: GGGAGUUCUACAGUCCGACGAUCCCAGAGGCCCUCUUUUACUGAGAACAAAAUGUGCGUAGAACAUUGUUCUGGCUGGCGGUGAAAACAGAAGAAAACCUUGCUCUCCGCUGGGAGUUGGGCGGGCUGGGUGGCCCGGGGAGGCAACAGAGGAUUGAGCAUCA
# B11: chr1:95363323:95363324:-_ENSG00000117519_ENST00000538964|hu_hu|FALSE|FALSE (ssRNA)
# RNA: GGGAGUUCUACAGUCCGACGAUCAAGGACUAAAUACUGAGCUCCUUCUGUGUGGAUCUAAUAAUCAAUGCCUUGGUCGCUAUAUUGGUAAUCUCUGGGGUAGUCAUCCUGGUACUCGCCAUGAUACUCAUCAGGGUAUUCUGCCAACAGAGGAUUGAGCAUCA
# B12: chr2:104430758:104430759:+_ENSMUSG00000027176_ENSMUST00000028599|mus_hu|motif|central (ssRNA)
# RNA: GGGAGUUCUACAGUCCGACGAUCGCUGAUUACAACGUGCGCACUGACCGUCGAUGGGAAGCUAGAAAAGAAAAAUUAAACGGAAAACCACCCCCAAAUCAGUAAAGUUACCCCCUGCCCAGCUGAGCCAGACCGCCAACACCACAACAGAGGAUUGAGCAUCA
# B13: chr10:33190432:33190433:-_ENSG00000150093_ENST00000302278|hu_mus|hu_hu_hu_mus_True|58_68 (ssRNA)
# RNA: GGGAGUUCUACAGUCCGACGAUCUACAUUUUCCAAACCUGCAUGUGAAUAAAACCCUGGCCACAGAGCCCUAAAGCUACCUAACUGUGACUAAGAUGCUGCUGCUGUGAGCUUGGUGUUGCAAAAUCCGCCUGAGUAGGAUUCCAACAGAGGAUUGAGCAUCA
# B14: chrX:39613801:39613802:+_ENSMUSG00000025862_ENSMUST00000069619|mus_mus|FALSE|FALSE (ssRNA)
# RNA: GGGAGUUCUACAGUCCGACGAUCCAAGUUUAAAGGUGGAUGGCUCUCCCCUUGUGGAUUAGGCUCCUUAAAAGCAAAUUCUAUACCAUCUUUGUGGAGCAUGGCAAUGGCUUCUCUGGUUUUCAAUUGAUCAAGUCCAAAAGUCAACAGAGGAUUGAGCAUCA
# B15: chr12:16043544:16043545:+_ENSG00000023734_ENST00000419869|hu_mus|FALSE|FALSE (ssRNA)
# RNA: GGGAGUUCUACAGUCCGACGAUCUUUGUUCAAGUCAUAUAUGCGCAGCAGUUUAUCCUGUCCCCCAGUUAGCAGGUAAUUGCUAUCCUGUGUGAAAUCCACAGUCUUGACAAUGUGCUUAUGAGCCAGGGUCAUCAAUUCAUCCAACAGAGGAUUGAGCAUCA
# B16: 98028052_98028867_1086_CDS_ENSMUSG00000018160_ENSMUST00000107545|mouse|control|control (ssRNA)
# RNA: GGGAGUUCUACAGUCCGACGAUCUGGAAUUGGCUGGGGAAAUUUCAAGAAGAAACACGCAGGAAGAUCAACACUGUUGGCACUAGUGACUGCGGAGAAAGAAGGGGUCCAUUUGUUGUCAGCUGGGUGUGACCCCAUAAUUAACAACAGAGGAUUGAGCAUCA
# B17: chr19:34925787:34925788:+_ENSG00000126261_ENST00000246548|perfect_dup|motif|central (ssRNA)
# RNA: GGGAGUUCUACAGUCCGACGAUCAAGAUACCCAGCUGUUCCACUUUCAAUAAGAGGAACAUCAGCUGCCAGGCACAUUCGGUUAACAUGGUUUCGGGCAGCUCUGUUAUCUAAAGCAUUCAUAACCAGUAUAAACUGUCGGAACAACAGAGGAUUGAGCAUCA
# B18: chr3:16083472:16083473:+_ENSMUSG00000047213_ENSMUST00000108345|mus_hu|FALSE|FALSE (ssRNA)
# RNA: GGGAGUUCUACAGUCCGACGAUCCGAACCGUUUUGUACUGAAACUUUAUUUCCUUGCCCUUUAGGUCUCUGAUCCACGCUAGUGGCUGACAUUCUUCACCGCAACCCGAGAGCCGCCGCCGCCGCCGCUGCCUGGGCCUCUCCCAACAGAGGAUUGAGCAUCA
# B19: chr6:31457689:31457690:+_ENSMUSG00000025609_ENSMUST00000142469|perfect_dup|FALSE|FALSE (ssRNA)
# RNA: GGGAGUUCUACAGUCCGACGAUCUGAUCAGGUCUACCAGGUUGCCUUUAGGAGGAGUCAUGCUGUCAGGAAAGAAAUUUACUAAGGUGUCAAAGAGCUGAGUUCUUUGAGCAUAGGUAUGAUCCACAUCUGAAAAGCCAUAAUCAACAGAGGAUUGAGCAUCA
# B20: chr2:144079538:144079539:-_ENSMUSG00000027423_ENSMUST00000110030|mus_hu|FALSE|FALSE (ssRNA)
# RNA: GGGAGUUCUACAGUCCGACGAUCGGCCUUAUCCAGAGCUUUGUUUGAGUUCUCAUAGUCAAUGAGGGCUUUGGUGCGUCUGUAUAAGAGAUCCUUAGCAGCUUCAAUGUUGAGCAUGUAGUAUCGGAGGAGCUCUGUUAGCUUCAACAGAGGAUUGAGCAUCA
# B21: chr8:95844298:95844299:+_ENSG00000164941_ENST00000520526|hu_hu|FALSE|FALSE (ssRNA)
# RNA: GGGAGUUCUACAGUCCGACGAUCCUAGAGUUCUCAUCGUAUGGACAUAAAGAUCCUUGUUUAAUUUUAGGGCUGCUUCUAGUACCAAAAUAGAAUCAGCAGCUUGUUCUUUGAGCACUUUCAAAAUGUUUUCUGUUAGCUCUUCAACAGAGGAUUGAGCAUCA
# B22: chr4:95690885:95690886:+_ENSMUSG00000028572_ENSMUST00000156910|mus_mus|mus_mus_mus_hu_False|78_78 (ssRNA)
# RNA: GGGAGUUCUACAGUCCGACGAUCUUUAGAAAAUGUUAAAUACCAUGCUAAAAUAUUGUAAUUUUAAUAUUUUAUUUUACCAGAAGUCACAGGCAAGCAGACACUACAAGAAUAUAUGAAAAUGAAACUCAACAAUAUAACUGUCAACAGAGGAUUGAGCAUCA
# Molecular target: T1, UNK ZnF1-3
# Assay: nsRBNS (natural sequence RNA bind-n-seq); RBNS binding buffer (assumed for nsRBNS): 25 mM Tris pH 7.5, 150 mM KCl, 3 mM MgCl2, 0.01% Triton X-100, 500 ug/ml BSA, 20 U/ml SUPERase-In, 4 C; UNK is unkempt and MSI1 is Musashi-1; names of the RNAs are library labels; protein concentration not given here; high values mean tight binding
row,Binder,binding signal
1,B1,1.49 enrichment R
2,B2,0.449 enrichment R
3,B3,1.94 enrichment R
4,B4,0.802 enrichment R
5,B5,0.826 enrichment R
6,B6,0.885 enrichment R
7,B7,0.379 enrichment R
8,B8,1.14 enrichment R
9,B9,2.17 enrichment R
10,B10,1.5 enrichment R
11,B11,0.809 enrichment R
12,B12,2.09 enrichment R
13,B13,0.961 enrichment R
14,B14,1.01 enrichment R
15,B15,0.834 enrichment R
16,B16,1.74 enrichment R
17,B17,0.496 enrichment R
18,B18,0.725 enrichment R
19,B19,1.71 enrichment R
20,B20,0.756 enrichment R
21,B21,0.614 enrichment R
22,B22,2.12 enrichment R
